Laboratory results: the supplement of paper PMC7826260
The list shows a part of the results. One pool of 16,384 single-stranded DNAs met each Rep nickase domain in vitro (3 µM enzyme, 1 h, 37 °C); shown is the middle of each 90-letter strand. Values are log2 of uncut reads against the no-enzyme pool; strong cutting gives strongly negative numbers. There is no active / inactive call. Because reads are shares of a total, they shift together; values above 0 arise when much of the pool is cut.

tested on: T1, Rep nickase domain of tomato golden mosaic virus; assay: uncleaved DNA left, log2 of reads against the no-enzyme library (log2 ratio); higher = less cleavage (more negative = more Rep cleavage of the k-mer); sequences stand for … in CTCGTCCG…ACCGGAGA
T1 sequence (protein, residues 1-124, tag omitted): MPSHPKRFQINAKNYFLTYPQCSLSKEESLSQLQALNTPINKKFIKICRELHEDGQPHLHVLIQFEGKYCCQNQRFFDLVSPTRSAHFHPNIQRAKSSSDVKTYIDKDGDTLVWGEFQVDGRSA
Procedure: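 A pool of 90-nt single-stranded DNAs with seven random bases just before the constant AC of the nick site (name = the seven bases) was cut by 3 µM recombinant His6-SUMO-tagged Rep nickase domain (300 nM DNA, 50 mM HEPES pH 8.0, 50 mM NaCl, 1 mM MnCl2, 1 h, 37 °C, three replicates). Uncut DNA was amplified and sequenced.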

**Q.** With TAGCGTG as the sequence, how does the “uncleaved DNA left (log2)” value read?
**A.** Its value is -0.0511.

**Q.** How did the “uncleaved DNA left (log2)” value turn out when TGGTCGC was run?
**A.** The value was -0.154.

**Q.** TGGAGCT was tested. Which “uncleaved DNA left (log2)” value did it give?
**A.** Its value is -0.0396.

**Q.** Which “uncleaved DNA left (log2)” value does the source give for ATGTCAT here?
**A.** The value was -0.0628.

**Q.** TGCTGCG was tested. Which “uncleaved DNA left (log2)” value did it give?
**A.** Its value is -0.162.

**Q.** For AGGCGGG, which “uncleaved DNA left (log2)” value is on record?
**A.** Its value is 0.00618.

**Q.** AACACGC was tested. Which “uncleaved DNA left (log2)” value did it give?
**A.** The value was 0.0125.

**Q.** Which “uncleaved DNA left (log2)” value does the source give for GCCGGCT here?
**A.** The value was -0.0521.

**Q.** For AGTTCAT, which “uncleaved DNA left (log2)” value is on record?
**A.** The value was -0.0339.

**Q.** For CAAGCAA, which “uncleaved DNA left (log2)” value is on record?
**A.** Its value is -0.00452.

**Q.** For CCTCGCG, which “uncleaved DNA left (log2)” value is on record?
**A.** The value was 0.00594.

**Q.** AATCGGA was tested. Which “uncleaved DNA left (log2)” value did it give?
**A.** The value was 0.0794.

**Q.** How did the “uncleaved DNA left (log2)” value turn out when GCATCTT was run?
**A.** Its value is 0.229.

**Q.** With ATAGGGG as the sequence, how does the “uncleaved DNA left (log2)” value read?
**A.** The value was 0.142.

**Q.** With AACCGCT as the sequence, how does the “uncleaved DNA left (log2)” value read?
**A.** The value was -0.00458.

**Q.** How did the “uncleaved DNA left (log2)” value turn out when AACTCCG was run?
**A.** The value was -0.0423.

**Q.** For TCTATCG, which “uncleaved DNA left (log2)” value is on record?
**A.** Its value is -0.1.

**Q.** For CTAGGAG, which “uncleaved DNA left (log2)” value is on record?
**A.** The value was 0.0454.

**Q.** How did the “uncleaved DNA left (log2)” value turn out when CTTCGCG was run?
**A.** Its value is -0.0268.

**Q.** GTTAAAA was tested. Which “uncleaved DNA left (log2)” value did it give?
**A.** Its value is 0.0715.

**Q.** CTGGAAT was tested. Which “uncleaved DNA left (log2)” value did it give?
**A.** Its value is 0.132.

**Q.** With TTAGCCC as the sequence, how does the “uncleaved DNA left (log2)” value read?
**A.** Its value is -0.0657.

**Q.** Which “uncleaved DNA left (log2)” value does the source give for GTGTACT here?
**A.** Its value is 0.151.

**Q.** For ATATAGT, which “uncleaved DNA left (log2)” value is on record?
**A.** Its value is -0.214.

**Q.** For AGTTTAT, which “uncleaved DNA left (log2)” value is on record?
**A.** Its value is -0.0947.

**Q.** With TTGGCCG as the sequence, how does the “uncleaved DNA left (log2)” value read?
**A.** Its value is -0.0881.

**Q.** How did the “uncleaved DNA left (log2)” value turn out when GGCGTCA was run?
**A.** The value was -0.0434.

**Q.** Which “uncleaved DNA left (log2)” value does the source give for GTAGTAG here?
**A.** The value was 0.101.

**Q.** With ACCTAGC as the sequence, how does the “uncleaved DNA left (log2)” value read?
**A.** The value was 0.00367.

**Q.** Which “uncleaved DNA left (log2)” value does the source give for ATTCATG here?
**A.** Its value is -0.00124.

**Q.** TTGGTTC was tested. Which “uncleaved DNA left (log2)” value did it give?
**A.** Its value is -0.0328.

**Q.** For TCACTTT, which “uncleaved DNA left (log2)” value is on record?
**A.** The value was -0.137.

**Q.** TCAAGAT was tested. Which “uncleaved DNA left (log2)” value did it give?
**A.** The value was 0.229.

**Q.** For CGTGTGC, which “uncleaved DNA left (log2)” value is on record?
**A.** The value was 0.0382.

**Q.** For CGCTCTT, which “uncleaved DNA left (log2)” value is on record?
**A.** Its value is -0.116.

**Q.** With TGTGGAT as the sequence, how does the “uncleaved DNA left (log2)” value read?
**A.** The value was 0.208.

**Q.** How did the “uncleaved DNA left (log2)” value turn out when TATTAAG was run?
**A.** The value was -0.0954.

**Q.** For AACATAT, which “uncleaved DNA left (log2)” value is on record?
**A.** Its value is 0.0576.

**Q.** Which “uncleaved DNA left (log2)” value does the source give for GGACGGC here?
**A.** The value was -0.0437.

**Q.** With CACTCAT as the sequence, how does the “uncleaved DNA left (log2)” value read?
**A.** The value was -0.00165.
